These results are taken from paper PMC4336329 (PLoS ONE, 2015).

About 14,000 (4.5%) of roughly 310,000 compounds showed an effect of 50% or more. Effects have a minus sign here. The list shows a part of the results.
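Also: peak tail current of the secondary pulse compared with the same well before compound.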

In this assay the target is human ether-à-go-go-related gene (hERG) potassium channel (human, UniProt Q12809). In words: primary screen, population patch clamp on CHO cells stably expressing hERG.
Chain of human ether-à-go-go-related gene (hERG) potassium channel (Q12809 whole entry, looked up): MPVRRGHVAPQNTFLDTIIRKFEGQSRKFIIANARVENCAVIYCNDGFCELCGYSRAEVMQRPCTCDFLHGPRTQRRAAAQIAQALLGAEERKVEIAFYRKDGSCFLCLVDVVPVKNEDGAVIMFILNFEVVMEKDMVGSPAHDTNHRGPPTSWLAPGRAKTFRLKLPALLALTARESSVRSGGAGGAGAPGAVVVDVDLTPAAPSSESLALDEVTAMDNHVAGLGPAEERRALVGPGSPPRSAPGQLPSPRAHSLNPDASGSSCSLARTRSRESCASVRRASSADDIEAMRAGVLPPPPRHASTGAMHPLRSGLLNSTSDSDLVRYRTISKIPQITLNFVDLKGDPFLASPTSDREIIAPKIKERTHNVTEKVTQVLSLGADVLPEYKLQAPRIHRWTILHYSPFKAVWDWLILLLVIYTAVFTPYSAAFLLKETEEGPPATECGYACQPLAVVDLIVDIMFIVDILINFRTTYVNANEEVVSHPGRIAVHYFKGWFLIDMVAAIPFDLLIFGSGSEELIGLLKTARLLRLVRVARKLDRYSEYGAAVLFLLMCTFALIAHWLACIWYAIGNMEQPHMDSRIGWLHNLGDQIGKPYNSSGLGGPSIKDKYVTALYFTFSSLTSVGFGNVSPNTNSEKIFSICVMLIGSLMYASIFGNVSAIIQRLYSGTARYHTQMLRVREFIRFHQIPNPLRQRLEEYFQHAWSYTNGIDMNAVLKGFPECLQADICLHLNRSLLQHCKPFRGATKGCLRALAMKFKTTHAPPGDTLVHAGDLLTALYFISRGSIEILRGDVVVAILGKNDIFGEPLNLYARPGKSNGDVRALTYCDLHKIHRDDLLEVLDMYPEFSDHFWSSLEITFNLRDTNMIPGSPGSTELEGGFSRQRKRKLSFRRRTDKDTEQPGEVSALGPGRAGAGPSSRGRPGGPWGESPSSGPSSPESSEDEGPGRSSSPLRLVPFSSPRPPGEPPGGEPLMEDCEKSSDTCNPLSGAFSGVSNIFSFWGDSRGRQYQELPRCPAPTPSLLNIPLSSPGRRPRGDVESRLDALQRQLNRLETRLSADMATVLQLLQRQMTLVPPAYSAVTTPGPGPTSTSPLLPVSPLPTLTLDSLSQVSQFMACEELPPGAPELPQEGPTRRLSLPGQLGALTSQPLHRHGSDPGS
On to `Cc1ccc(NCN2C(=O)c3ccccc3C2=O)c(C)c1`, for which the “hERG current change (%, negative = inhibition) at 10uM” value was -20.7%.

On to `CCOc1ccc(N2C(=O)/C(=C\c3ccc(O)c(OC)c3)S(=O)(=O)C2c2cccc([N+](=O)[O-])c2)cc1` (stereo not drawn), for which the “hERG current change (%, negative = inhibition) at 10uM” value came to 25.6%.

Take `COc1ccc(S(=O)(=O)N2CCCCC2)cc1NC(=O)c1cccs1`: the “hERG current change (%, negative = inhibition) at 10uM” value worked out at 32.3%.

Turning to `C/C(=N/NS(=O)(=O)c1cc(C)ccc1C)c1ccncc1`, the “hERG current change (%, negative = inhibition) at 10uM” value came out at 11%.

In the case of `COc1ccc(-n2nnnc2SCC(=O)Nc2cccc(NC(C)=O)c2)cc1OC`, the “hERG current change (%, negative = inhibition) at 10uM” value was -2.11%.

Turning to `CC(C)(C)c1ccc(-n2ncc3c2CCCC3NC(=O)c2csnn2)cc1` (stereo not drawn), the “hERG current change (%, negative = inhibition) at 10uM” value amounted to 1.88%.

Regarding `Cc1cccc(N2C(=O)CC(Sc3nc(C)c4c(n3)CCCC4)C2=O)c1` (stereo not drawn), the “hERG current change (%, negative = inhibition) at 10uM” value is listed as -1.59%.

As to `O=c1oc2ccccc2cc1-c1ccccc1`, the “hERG current change (%, negative = inhibition) at 10uM” value came out at 14.5%.

Take `COc1cc(/C=N/N=C2/C(=O)Nc3ccccc32)cc(OC)c1O`: the “hERG current change (%, negative = inhibition) at 10uM” value was -3.68%.

As for `Cc1ccc(NC(=O)NCc2ccncc2)cc1Cl`, the “hERG current change (%, negative = inhibition) at 10uM” value is recorded as -2.27%.

On to `COc1ccc2ccccc2c1/C=N/NC(=O)c1cccc(C)c1`, for which the “hERG current change (%, negative = inhibition) at 10uM” value is -12.9%.

Take `CCOc1ccc(C(=O)n2cc(C(=O)OC)c3ccccc32)cc1OCC`: the “hERG current change (%, negative = inhibition) at 10uM” value is recorded as 3.18%.

Consider `CCOc1ccc(-c2cc(C(=O)N3CCCC3)c3ccccc3n2)cc1`, for which the “hERG current change (%, negative = inhibition) at 10uM” value came to 7.81%.

`O=C(Cc1ccccc1[N+](=O)[O-])OCN1C(=O)c2ccccc2C1=O`: the “hERG current change (%, negative = inhibition) at 10uM” value is 9.99%.

For `O=C(Nc1ccncc1)c1ccc(Cl)c(S(=O)(=O)N2CCCCC2)c1`, the “hERG current change (%, negative = inhibition) at 10uM” value was -31.3%.

For `O=C(NC1CC(=O)c2sccc21)c1ccc(Cl)cc1Cl` (stereo not drawn), the “hERG current change (%, negative = inhibition) at 10uM” value was -35.6%.

`CCc1ccc(NC(=O)Cn2nnc(C(=O)NCc3ccco3)c2N)cc1`: the “hERG current change (%, negative = inhibition) at 10uM” value came out at 9.83%.

On to `CC1CCC(C(C)C)C(OC(=O)CSc2nc(N)cc(=O)[nH]2)C1` (stereo not drawn), for which the “hERG current change (%, negative = inhibition) at 10uM” value worked out at 12.7%.

In the case of `O=C(c1cccc(Oc2ccccc2)c1)N1CCN(c2ccccn2)CC1`, the “hERG current change (%, negative = inhibition) at 10uM” value was -39.7%.

With `CCCCn1nc(C(=O)Nc2ccccc2N2CCCC2)c2ccccc2c1=O`, the “hERG current change (%, negative = inhibition) at 10uM” value was -9.4%.

Turning to `CCCC1(CCC)C(=O)NC(=NCc2ccccc2)NC1=O`, the “hERG current change (%, negative = inhibition) at 10uM” value was 12.7%.

Regarding `O=C(O)CC1Sc2nnc(COc3ccc(Cl)cc3)n2N=C1c1ccccc1` (stereo not drawn), the “hERG current change (%, negative = inhibition) at 10uM” value turned out to be 21.2%.

Consider `CCCc1cc(=O)[nH]c(SCC(=O)Nc2ccc(C)cc2)n1`, for which the “hERG current change (%, negative = inhibition) at 10uM” value was determined as 25.5%.

As for `CCOc1ccccc1NS(=O)(=O)c1ccc(-n2cccn2)cc1`, the “hERG current change (%, negative = inhibition) at 10uM” value was -5.38%.

Consider `CCOc1ccc(C(=O)CCC(=O)Nc2ccncc2)cc1`, for which the “hERG current change (%, negative = inhibition) at 10uM” value is -4.97%.

As for `COCCNC(=O)C(=O)NNS(=O)(=O)c1ccc2ccccc2c1`, the “hERG current change (%, negative = inhibition) at 10uM” value was 5.35%.

Regarding `CCC(C)NC(=O)c1cc(C)no1` (stereo not drawn), the “hERG current change (%, negative = inhibition) at 10uM” value turned out to be 19.4%.

In the case of `COC(=O)c1[nH]c2ccc(F)cc2c1NC(=O)CCN1CC(C)OC(C)C1` (stereo not drawn), the “hERG current change (%, negative = inhibition) at 10uM” value is given as 5.45%.

As to `O=C(NC(=S)Nc1ccc(N2CCCCC2)cc1)c1ccco1`, the “hERG current change (%, negative = inhibition) at 10uM” value is listed as -14%.

On to `CC1(C)CC(=O)N(CC(=O)O)c2ccccc2S1`, for which the “hERG current change (%, negative = inhibition) at 10uM” value was 15.7%.

Regarding `CC(=O)c1cccc(NC(=O)C(CC(C)C)NC(=O)C2CCCCC2)c1` (stereo not drawn), the “hERG current change (%, negative = inhibition) at 10uM” value is recorded as -4.77%.

As for `COc1ccc(-n2nnnc2-c2ccc(S(C)(=O)=O)cc2Cl)cc1`, the “hERG current change (%, negative = inhibition) at 10uM” value came to 2.44%.

For the compound `O=C(NCCc1ccc(Cl)cc1)C1COc2ccccc2O1` (stereo not drawn), the “hERG current change (%, negative = inhibition) at 10uM” value is listed as -49.5%.

On to `COc1ccccc1S(=O)(=O)Cc1ccc(C(=O)N2CCN(c3cccc(Cl)c3)CC2)o1`, for which the “hERG current change (%, negative = inhibition) at 10uM” value is reported as -31.1%.

`O=C(O)c1ccc(-n2c(-c3cc(-c4ccco4)[nH]n3)n[nH]c2=S)cc1`: the “hERG current change (%, negative = inhibition) at 10uM” value was 12%.

`CCOc1cc2[nH]c(=S)n(CCCCC(=O)NCc3ccco3)c(=O)c2cc1OCC`: the “hERG current change (%, negative = inhibition) at 10uM” value was -6.51%.

On to `COC(C(=O)N/N=C(\C)CC(=O)Nc1ccc(Cl)cc1C)c1ccccc1` (stereo not drawn), for which the “hERG current change (%, negative = inhibition) at 10uM” value was -10.5%.

With `CCSc1nc2c(c(=O)[nH]1)C(C(C)C)C(C#N)=C(N)O2` (stereo not drawn), the “hERG current change (%, negative = inhibition) at 10uM” value is recorded as 5.71%.

As to `CCCc1cc(=O)[nH]c(SCCc2ccccc2)n1`, the “hERG current change (%, negative = inhibition) at 10uM” value came out at 5.57%.

Regarding `O=C(NCCN1CCOCC1)c1ccc(CS(=O)(=O)c2ccc(Br)cc2)o1`, the “hERG current change (%, negative = inhibition) at 10uM” value is given as -2.9%.

As to `O=C(CNS(=O)(=O)c1ccccc1)N1CCN(c2ccccc2)CC1`, the “hERG current change (%, negative = inhibition) at 10uM” value is -5.22%.

On to `Cc1ccc(C2=NN(C(=O)CSc3nccn3C)C(c3ccco3)C2)cc1` (stereo not drawn), for which the “hERG current change (%, negative = inhibition) at 10uM” value is -30.2%.

With `COc1cc(/C=c2\sc3n(c2=O)CCCN=3)ccc1O`, the “hERG current change (%, negative = inhibition) at 10uM” value is 12.3%.

Turning to `CCN(CC)CCCNC(=O)c1cc2c(Cl)nc3ccccc3c2s1`, the “hERG current change (%, negative = inhibition) at 10uM” value is -47.1%.

For `O=C(CCNS(=O)(=O)c1ccccc1)Nc1ccc(Cl)cc1C(=O)c1ccccc1`, the “hERG current change (%, negative = inhibition) at 10uM” value is -32.9%.

Turning to `Cc1cc(C)c(NC(=O)CN)c(C)c1.Cl`, the “hERG current change (%, negative = inhibition) at 10uM” value is on record as 17.6%.

As for `O=C(O)CSCC(=O)N(Cc1ccccc1)c1nc(-c2ccccc2)c(-c2ccccc2)s1`, the “hERG current change (%, negative = inhibition) at 10uM” value is -3.61%.

For `Cc1ccccc1-n1c(SCC(=O)NCC2CCCO2)nc2c([nH]c3ccccc32)c1=O` (stereo not drawn), the “hERG current change (%, negative = inhibition) at 10uM” value was determined as 0.764%.

As for `CCC(c1nnnn1CCc1ccccc1)N(Cc1ccco1)Cc1cc2c(C)ccc(C)c2[nH]c1=O` (stereo not drawn), the “hERG current change (%, negative = inhibition) at 10uM” value turned out to be 10.4%.

In the case of `O=C(Nc1nc2ccccc2[nH]1)c1ccc(OC(F)F)cc1`, the “hERG current change (%, negative = inhibition) at 10uM” value is -11%.

Take `COc1ccc2nc(Cl)c(C3CC(c4ccco4)=NN3C(=O)CCC(=O)O)cc2c1` (stereo not drawn): the “hERG current change (%, negative = inhibition) at 10uM” value was -8.82%.

As for `CC(CCc1ccccc1)NC(=O)CNc1cccc([N+](=O)[O-])c1` (stereo not drawn), the “hERG current change (%, negative = inhibition) at 10uM” value is recorded as -30.1%.

With `CSc1nnc(NC(=O)C2CCCCC2)s1`, the “hERG current change (%, negative = inhibition) at 10uM” value was 5.07%.

Turning to `CCCc1ccc(OCc2ccc(C(=O)N3CCSCC3)o2)cc1`, the “hERG current change (%, negative = inhibition) at 10uM” value is listed as -42.8%.

Regarding `CCOC(=O)c1c(C)[nH]c(C(=O)NCCc2ccc(OC)c(OC)c2)c1C`, the “hERG current change (%, negative = inhibition) at 10uM” value is -15.3%.

Take `CCCOc1ccc(CNC(=O)C2CCN(C(=O)N3CCOc4ccccc43)CC2)cc1`: the “hERG current change (%, negative = inhibition) at 10uM” value is -7.99%.

For `COc1ccc(C(=O)c2c(NC(C)=O)sc3c2CCN(C(=O)OC(C)(C)C)C3)cc1`, the “hERG current change (%, negative = inhibition) at 10uM” value is -23.2%.
